Test results reported in PubChem BioAssay AID662 (National Center for Advancing Translational Sciences (NCATS), 2007).
The whole screen tested about 71,000 compounds, of which about 1,800 (2.5%) were called active. This list was built around the results that the source calls inconclusive (neither active nor inactive); the mix of calls is not that of the screen. Calls come from the whole dose curve; as a rule, active = well fitted activation curve with a large enough effect in the signal ratio, with a control signal flat (not every such curve was filed as active); inconclusive = small, poorly fitted or top-dose-only effect, or effect the other way, or a change in a side signal; inactive = flat fitted curve, though single readings scatter; the % refers to the signal ratio. Where the call is inconclusive, the potency comes from a doubtful curve fit.

Assay: Cell signaling CRE-BLA (Fsk stim); for activity change, negative = inhibition: % of control where 0% means no effect
Conditions: CHO CRE-bla reporter (cAMP response element driving beta-lactamase), forskolin EC10, beta-lactamase ratio; activity change, negative = inhibition: at 38.2 µM (top of the series) unless noted
Method in brief: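 CHO CRE-bla cells, overnight plating in Opti-MEM with 0.5% dialyzed FBS; cpd titration + EC10 NKH 477, 3 h 37 °C; CCF4 2 h RT; ex 405/em 460 vs 530 ratio → %Activity, AC50.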
Potency is the fitted concentration of half-maximal effect; tags give direction and shape of the fitted curve.

Question: For `COc1ccc(CNc2oc(-c3ccccc3)nc2C#N)cc1`, which Potency is on record?
Answer: Its Potency is inconclusive: 5.01 µM [rising, single point].

Question: Which Potency does the source give for `COc1ccc(OC)c(/C=N/c2oc(-c3ccco3)c(-c3ccco3)c2C#N)c1` here?
Answer: The Potency was inconclusive: 10 µM [rising, partial curve].

Question: With `Nc1nnc(SCCOc2ccc(Br)cc2)s1` as the compound, how does the activity change, negative = inhibition read?
Answer: Its activity change, negative = inhibition is “inactive”.

Question: With `O=C(COC(=O)c1ccco1)Nc1ccc(Br)cc1` as the compound, how does the activity change, negative = inhibition read?
Answer: Its activity change, negative = inhibition is “inactive”.

Question: For `COc1ccc(C(=O)NCc2cccnc2)cc1OC`, which Potency is on record?
Answer: Its Potency is inconclusive: 10 µM [rising, single point].

Question: With `CCOC(=O)c1c(C)n(C)c2ccc(O)c(CN(C)C)c12` as the compound, how does the Potency read?
Answer: The Potency was inconclusive: 10 µM [rising, single point].

Question: For `O=C(CSc1nc2ccccc2o1)Nc1ccccc1N1CCCCCC1`, which activity change, negative = inhibition is on record?
Answer: The activity change, negative = inhibition was inconclusive: 11.5%.

Question: For `C=CCNC(=O)NC(=O)COC(=O)COc1ccc(Br)cc1F`, which Potency is on record?
Answer: The Potency was inconclusive: 3.98 µM [falling, single point].

Question: For `CS(=O)(=O)OCCCCOS(C)(=O)=O`, which activity change, negative = inhibition is on record?
Answer: Its activity change, negative = inhibition is “inactive”.

Question: Which activity change, negative = inhibition does the source give for `Cc1cc(C)nc(NCCCc2ccccc2)n1` here?
Answer: Its activity change, negative = inhibition is “inactive”.

Question: With `CC1CCN(CCNC(=O)C2CCCN(S(=O)(=O)c3cccc4nonc34)C2)CC1` (stereo not drawn) as the compound, how does the activity change, negative = inhibition read?
Answer: Its activity change, negative = inhibition is “inactive”.

Question: With `Cc1oc2c(CN(C)C)c(O)ccc2c(=O)c1-c1cscn1` as the compound, how does the activity change, negative = inhibition read?
Answer: Its activity change, negative = inhibition is inconclusive: -11.1%.

Question: For `CCn1c2c(c3cc(Br)ccc31)CCC/C2=N\O`, which Potency is on record?
Answer: The Potency was inconclusive: 15.8 µM [rising, single point].

Question: With `COc1cc(NS(=O)(=O)c2cc(C)ccc2OC)c(OC)cc1Cl` as the compound, how does the activity change, negative = inhibition read?
Answer: The activity change, negative = inhibition was inconclusive: 24.5%.

Question: With `N#Cc1nc(COc2ccc(Br)cc2)oc1N1CCCCCC1` as the compound, how does the activity change, negative = inhibition read?
Answer: The activity change, negative = inhibition was “inactive”.

Question: For `CCc1ccc(-c2nc(CN3CCC(C(=O)N4CCN(c5ccccn5)CC4)CC3)c(C)o2)cc1`, which activity change, negative = inhibition is on record?
Answer: The activity change, negative = inhibition was inconclusive: -6.46%.

Question: Which activity change, negative = inhibition does the source give for `COC(=O)C1=C(C)NC(C)=C([N+](=O)[O-])[C@H]1c1ccccc1C(F)(F)F` here?
Answer: Its activity change, negative = inhibition is inconclusive: -23.7%.

Question: With `CNC(=O)c1ccccc1NC(=O)c1cccc(S(=O)(=O)N2CCC(C)CC2)c1` as the compound, how does the Potency read?
Answer: The Potency was inconclusive: 7.94 µM [rising, partial curve].

Question: With `COc1ccccc1NC=C1C(=O)OC2(CCCCC2)OC1=O` as the compound, how does the activity change, negative = inhibition read?
Answer: The activity change, negative = inhibition was “inactive”.

Question: Which Potency does the source give for `CCN1CCN(C(=O)c2cc3c(=O)oc4ccc(C)cc4c3s2)CC1` here?
Answer: The Potency was active: 2.51 µM.

Question: With `CCOC(=O)c1sc2ccc(S(=O)(=O)N3CCCCC3)cc2c1N` as the compound, how does the Potency read?
Answer: The Potency was inconclusive: 15.8 µM [rising, single point].

Question: Which Potency does the source give for `COc1ccc(CNC(=O)C2CC(c3cccc(OC)c3)=NO2)cc1` (stereo not drawn) here?
Answer: The Potency was inconclusive: 25.1 µM [rising, single point].

Question: Which Potency does the source give for `CCN(CC)c1nc(Nc2ccccc2)nc(Oc2ccc(=O)[nH]n2)n1` here?
Answer: Its Potency is inconclusive: 10 µM [rising, partial curve].
